Test results published in the supplement of paper PMC12645437, “Orthogonal IMiD-Degron Pairs Induce Selective Protein Degradation in Cells” (ACS Chemical Biology, 2025).
The list shows a part of the results.

The sequences below were run against no compound (DMSO) (assay: log2 fold change of degron read counts, EGFP-low vs EGFP+ sorted cells; higher = lower degron-EGFP level without compound (poor expression or instability)). Conditions: compound: DMSO control; 18 h.
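Further: jurkat cells carrying a lentiviral library of mutant zinc finger degrons fused to EGFP plus mCherry, mCherry+ cells FACS sorted, degron abundance counted by next-generation sequencing.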

| Sequence | log2 fold change of degron read counts |
| --- | --- |
| LVCPICGFYCTQKGNLLRHIKL | 1.46 |
| FICNQCGRNFTQKGNLLRHIKL | -0.762 |
| FDCEQCGAMFTQKGNLLRHIKL | -1.54 |
| LHCEICGFDCTQKGNLLRHIKL | -0.332 |
| LMCEICGFRCTQKGNLLRHIKL | 0.53 |
| LSCEICGFVCTQKGNLLRHIKL | -0.574 |
| LACNQCGFDCTQKGNLLRHIKL | 0.0552 |
| FFCEQCGARFTQKGNLLRHIKL | -1.19 |
| FWCPICGAFFTQKGNLLRHIKL | 2.64 |
| FQCDVCGATFTQKGNLLRHIKL | -1.94 |
| FGCEICGHIFTQKGNLLRHIKL | 0.45 |
| FRCEICGAFFTQKGNLLRHIKL | -0.787 |
| FWCPVCGAQFTQKGNLLRHIKL | 0.311 |
| FECDVCGADFTQKGNLLRHIKL | -3.06 |
| FRCEVCGAKFTQKGNLLRHIKL | -1.4 |
| FFCDICGAKFTQKGNLLRHIKL | -0.514 |
| FFCNQCGRVFTQKGNLLRHIKL | 0.428 |
| FYCEICGAYFTQKGNLLRHIKL | 0.182 |
| FFCNVCGALFTQKGNLLRHIKL | 0.793 |
| FHCNQCGAYFTQKGNLLRHIKL | -0.158 |
| FWCPICGRWFTQKGNLLRHIKL | 1.69 |
| LHCNQCGFCCTQKGNLLRHIKL | 0.113 |
| FRCDVCGARFTQKGNLLRHIKL | -1.65 |
| FCCEICGRRFTQKGNLLRHIKL | -1.6 |
| FHCDICGANFTQKGNLLRHIKL | -1.19 |

| Sequence | log2 fold change of degron read counts |
| --- | --- |
| FFCNQCGRGFTQKGNLLRHIKL | 0.241 |
| FFCPVCGAVFTQKGNLLRHIKL | 0.298 |
| FKCEICGHEFTQKGNLLRHIKL | -2.05 |
| FHCDQCGANFTQKGNLLRHIKL | -2.04 |
| FFCPICGAGFTQKGNLLRHIKL | 0.0109 |
| FTCEICGRSFTQKGNLLRHIKL | -1.06 |
| FTCPICGRCFTQKGNLLRHIKL | -0.359 |
| FVCPICGHDFTQKGNLLRHIKL | -0.195 |
| FRCDQCGAAFTQKGNLLRHIKL | -1.64 |
| FYCPICGRTFTQKGNLLRHIKL | -0.109 |
| FRCNQCGHEFTQKGNLLRHIKL | -1.03 |
| FMCNVCGATFTQKGNLLRHIKL | -1.35 |
| FGCEICGRTFTQKGNLLRHIKL | 0.00391 |
| FWCNQCGACFTQKGNLLRHIKL | 0.557 |
| FACEVCGALFTQKGNLLRHIKL | -1.64 |
| FDCDICGAMFTQKGNLLRHIKL | -1.89 |
| LACNQCGFICTQKGNLLRHIKL | 0.49 |
| FNCDVCGAYFTQKGNLLRHIKL | -0.747 |
| FWCEQCGAEFTQKGNLLRHIKL | -2.29 |
| FWCEICGHDFTQKGNLLRHIKL | 0.246 |
| FWCNVCGADFTQKGNLLRHIKL | -0.0903 |
| FACNQCGHQFTQKGNLLRHIKL | -0.288 |
| FKCPICGRRFTQKGNLLRHIKL | -1.45 |
| FKCEICGATFTQKGNLLRHIKL | -1.92 |
| FKCDICGAFFTQKGNLLRHIKL | -2.2 |
